Among all 310,000 compounds or so, about 14,000 (4.5%) showed an effect of 50% or more. Effects have a minus sign here. Some of the results follow.
Each molecule was assayed against human ether-à-go-go-related gene (hERG) potassium channel (human, UniProt Q12809) (assay: primary screen, population patch clamp on CHO cells stably expressing hERG).
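Further: peak tail current of the secondary pulse compared with the same well before compound.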

Chain of human ether-à-go-go-related gene (hERG) potassium channel (Q12809 whole entry, looked up): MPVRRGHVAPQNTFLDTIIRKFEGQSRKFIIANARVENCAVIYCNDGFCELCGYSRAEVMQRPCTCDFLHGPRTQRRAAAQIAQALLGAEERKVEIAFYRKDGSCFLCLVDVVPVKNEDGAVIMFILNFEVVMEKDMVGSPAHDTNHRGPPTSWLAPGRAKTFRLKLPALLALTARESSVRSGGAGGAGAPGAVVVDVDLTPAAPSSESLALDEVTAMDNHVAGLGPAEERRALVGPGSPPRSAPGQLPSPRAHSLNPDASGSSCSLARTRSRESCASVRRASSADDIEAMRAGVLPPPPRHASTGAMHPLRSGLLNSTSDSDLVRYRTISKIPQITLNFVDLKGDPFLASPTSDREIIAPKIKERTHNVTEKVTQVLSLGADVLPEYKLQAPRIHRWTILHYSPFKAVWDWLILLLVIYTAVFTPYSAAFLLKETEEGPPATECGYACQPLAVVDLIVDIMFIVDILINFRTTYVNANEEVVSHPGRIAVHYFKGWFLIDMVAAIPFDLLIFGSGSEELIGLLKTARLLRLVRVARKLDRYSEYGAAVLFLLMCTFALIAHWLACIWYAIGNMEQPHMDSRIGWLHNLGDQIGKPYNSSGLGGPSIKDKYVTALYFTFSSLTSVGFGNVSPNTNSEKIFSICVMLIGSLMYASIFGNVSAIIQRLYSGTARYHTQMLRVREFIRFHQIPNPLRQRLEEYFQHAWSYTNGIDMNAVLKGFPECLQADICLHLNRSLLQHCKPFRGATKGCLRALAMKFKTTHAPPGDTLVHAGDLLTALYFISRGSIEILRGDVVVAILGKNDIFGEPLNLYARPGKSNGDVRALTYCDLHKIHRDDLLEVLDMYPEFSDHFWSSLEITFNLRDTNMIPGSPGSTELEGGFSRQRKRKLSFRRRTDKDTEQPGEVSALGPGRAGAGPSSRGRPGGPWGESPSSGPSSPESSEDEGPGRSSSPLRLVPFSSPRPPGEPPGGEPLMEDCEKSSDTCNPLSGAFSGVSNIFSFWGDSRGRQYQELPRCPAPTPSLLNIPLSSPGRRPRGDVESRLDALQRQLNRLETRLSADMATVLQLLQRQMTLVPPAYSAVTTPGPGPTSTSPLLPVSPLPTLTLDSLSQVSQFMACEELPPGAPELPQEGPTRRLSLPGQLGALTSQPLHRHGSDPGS

Row | Compound | hERG current change (%, negative = inhibition) at 10uM
1 | O=C(c1ccco1)N1CCCC(Nc2ccc3c(c2)OCCO3)C1 (stereo not drawn) | -9.22%
2 | Cc1c(-c2ccc(/C=N/NC(=O)C(=O)Nc3ccccc3F)o2)cccc1[N+](=O)[O-] | 21.1%
3 | CCc1n[nH]c(=S)n1/N=C/c1ccccn1 | 19.6%
4 | CCS(=O)(=O)n1nc(-c2ccccc2)nc1SCc1ccccc1 | 12.4%
5 | O=C(Nn1cnc2ccccc2c1=O)c1ccc(Br)cc1 | 14.7%
6 | CCCCC(=O)Nc1cccc(NC(=O)c2ccccc2Br)c1 | -4.35%
7 | Cc1ccccc1C(=O)N1N=C(c2cccc(NS(C)(=O)=O)c2)CC1c1cccs1 (stereo not drawn) | -6.36%
8 | Cc1ccc(NS(=O)(=O)c2cccc3cccnc23)c(Br)c1 | 16%
9 | COc1ccccc1NC(C)=[N+](C)CCNS(=O)(=O)c1ccc(Cl)cc1.[I-] | -58.7%
10 | O=C(OCC(O)CN1CCCCC1)C12CC3CC(CC(C3)C1)C2 (stereo not drawn) | -16.3%
11 | NC(=S)/N=C/c1c(O)[nH]c(=O)[nH]c1=O | 12.5%
12 | NS(=O)(=O)c1ccc(NC2=CC(c3ccc(F)cc3)N(c3ccc(S(N)(=O)=O)cc3)C2=O)cc1 (stereo not drawn) | 0.363%
13 | CC(=O)Nc1ccc(NC(=S)Nc2ccc(Br)cc2)cc1 | 1.54%
14 | COC(=O)C1=C(CSc2nc3ccccc3o2)NC(=O)NC1c1cc(C)ccc1C (stereo not drawn) | 1.51%
15 | CC(C)c1nc(NCCO)c2nnn(Cc3ccccc3)c2n1 | 26%
16 | COc1cccc(-n2nnnc2SCC(=O)NCc2ccc3c(c2)OCO3)c1 | -9.04%
17 | CNC(=O)COC(=O)c1[nH]c(C)c(C(C)=O)c1C | 15.2%
18 | O=C(Nc1ccc2c(c1)OCCO2)c1cccc(Cl)c1Cl | -8.58%
19 | O=c1[nH]c(N2CCN(Cc3ccc4c(c3)OCO4)CC2)nc2c1CCCC2 | 5.59%
20 | CC1CCCCN1c1nnc(N)s1 (stereo not drawn) | 1.22%
21 | COc1ccc(C(=O)C(=O)c2ccc(OCCO)cc2)cc1 | -10.6%
22 | COc1ccc(NC(=O)CN(C)C(=O)c2cc(S(=O)(=O)N(C)C)ccc2N2CCCC2)cc1 | -13.8%

Row | Compound | hERG current change (%, negative = inhibition) at 10uM
23 | COc1cc(/C=N/NC(=O)CC23CC4CC(CC(C4)C2)C3)cc(Br)c1OCC(=O)N(C)C | -18.1%
24 | O=C(NNC(=O)c1ccc[nH]1)Nc1cccc(C(F)(F)F)c1 | 15.6%
25 | CN1CCN(S(=O)(=O)c2ccc(C#N)cc2)C(c2ccccc2)C1.Cl (stereo not drawn) | -11%
26 | Nc1c(N2CCOCC2)cc(Cl)c2nonc12 | -39.9%
27 | COc1ccc(NS(=O)(=O)c2cc(NC(=O)[C@@H](NC(N)=O)C(C)C)ccc2C)cc1 | 11.9%
28 | O=c1c(C=NCCN2CCNCC2)c(O)n(C2CCCCC2)c(=O)n1C1CCCCC1 | -17.8%
29 | CC(C)(C)c1ccc(C(=O)NC(=S)NNC(=O)COc2ccccc2)cc1 | 15.5%
30 | CC1CC(C)(C)NCCNC(C)CC(C)(C)NCCN1 (stereo not drawn) | -1.39%
31 | CCOC(=O)C(NC(=O)CC(C)C)(Nc1cc(C)on1)C(F)(F)F (stereo not drawn) | -10.4%
32 | O=C(O)c1ccc2c(c1)S(=O)(=O)c1ccccc1C2=O | 17%
33 | COc1cccc(N(CC(=O)O)S(=O)(=O)c2ccccc2)c1 | 4.43%
34 | O=C1CN(C(=O)/C=C/c2cc(Br)ccc2F)CCN1 | -5.51%
35 | COC(=O)C1=CN(Cc2ccc(OC)cc2)C=C(C(=O)OC)C1c1ccc(O)c(OC)c1 | 12.5%
36 | COC(=O)c1cc(S(=O)(=O)NCC2CCN(CCc3ccc(OC)cc3)CC2)c[nH]1 | -67%
37 | COc1ccc([C@H]2CC(=O)C=C(c3ccc(Cl)c(F)c3)C2)cc1 | -13.1%
38 | Cc1nnc(SCc2nnc(-c3ccc(Cl)cc3)o2)n1-c1ccccc1 | -31.9%
39 | O=C(CSc1nnc(Nc2ccccc2)s1)NCc1ccco1 | -6.18%
40 | Cc1cc(Cl)ccc1NC(=O)COC(=O)c1cc([N+](=O)[O-])ccc1N1CCOCC1 | -49.2%
41 | CCCCCn1c(N2CCC(C(N)=O)CC2)nc2c1c(=O)[nH]c(=O)n2C | -3.45%
42 | O=c1[nH]c(=S)ccn1C1OC(CO)C(O)C1O (stereo not drawn) | 23%
43 | O=C(CN1C(=O)NC(Cc2c[nH]c3ccccc23)C1=O)NCC(F)(F)F (stereo not drawn) | 16.2%
44 | CC(=O)C(Cc1cccc(F)c1)(Cc1cccc(F)c1)C(C)=O | -11.9%

Row | Compound | hERG current change (%, negative = inhibition) at 10uM
45 | O=C(c1ccc(S(=O)(=O)Cc2ccccc2Cl)c([N+](=O)[O-])c1)N1CCN(c2ccccn2)CC1 | -43.3%
46 | CNS(=O)(=O)c1ccc(NC(=O)c2ccc(Cl)cc2Cl)cc1 | 6.79%
47 | Cc1cnc(C(=O)OCC(=O)Nc2sc3c(c2C#N)CCC3)cn1 | -0.0452%
48 | Cc1cc(C)n(Cc2ccc(Cl)nc2)n1 | 6.78%
49 | O/N=C1\CCCCc2ccccc21 | 13.8%
50 | O=C(CC(=O)NCc1ccc(Cl)cc1)NCc1ccccc1 | -3.34%
51 | O=C(CSc1ccc(-c2ccc(F)cc2)nn1)NCc1ccco1 | 7.97%
52 | CCc1ccc(NC(=O)CCS(=O)(=O)c2ccc3c(c2)CCN3C(C)=O)cc1 | 1.45%
53 | CCN1C(=O)c2cccc3c(NC(=O)c4ccccc4)ccc1c23 | 9.37%
54 | COc1ccc(NC(=O)c2cc(S(=O)(=O)N3CCCC3)ccc2OC)cc1 | 9.85%
55 | N#CCNC1CC(=O)N(c2ccc(F)cc2)C1=O (stereo not drawn) | -0.683%
56 | CCO[C@H]1OC(C(=O)NCc2ccccc2)=C[C@@H](c2ccc3c(c2)OCO3)[C@@H]1CCCO | -9.78%
57 | CC(=O)c1nc(N2C(=O)CC(Cc3ccc(C)cc3)C2=O)sc1C (stereo not drawn) | 3.3%
58 | NC(=O)c1ccc(NC(=O)c2ccc3c(c2)CCN3S(=O)(=O)c2ccccc2)cc1 | 21.5%
59 | CCCCNC(=O)c1cnc2n(c1=O)CCS2 | -2.28%
60 | Cc1ccc(C(C(=O)NC2CCCC2)N2CCCC(C)C2)cc1 (stereo not drawn) | -0.601%
61 | Cc1ccc(C(=O)OCC(=O)NC(=O)NCc2ccccc2)cc1C | 7.95%
62 | Cc1nc(SCC(=O)CC(=O)OC(C)C)c(C#N)c(C)c1C | -9.16%
63 | Nc1[nH]n(-c2ccccc2)c(=O)c1N=Nc1ccccc1[N+](=O)[O-] | 10%
64 | Cc1noc(C(=O)Nc2cccc(Cl)c2)c1Cl | 16.5%
65 | Cc1cc([N+](=O)[O-])cnc1Sc1nccn1C | 9.93%
66 | CCC(C(=O)OC)(C(=O)OC)c1ccc([N+](=O)[O-])cc1 | -3.82%

Row | Compound | hERG current change (%, negative = inhibition) at 10uM
67 | CC12CCC(C(=O)N3CCN(Cc4ccccc4)CC3)(OC1=O)C2(C)C (stereo not drawn) | 13.2%
68 | Cc1c(C(=O)NC(=S)Nc2ccc(NC(=O)c3cccs3)cc2)cccc1[N+](=O)[O-] | -0.455%
69 | CC(=C/c1ccccc1)/C=N/NC(=O)c1cc(C)oc1C | 14.4%
70 | Cc1nc2ccc(NS(=O)(=O)c3ccc(F)c(C)c3)cc2[nH]1 | -14.8%
71 | CCN(C(=O)Cn1nc(C)c([N+](=O)[O-])c1C)c1c(N)n(Cc2ccccc2)c(=O)[nH]c1=O | 9.02%
72 | Cn1c(=O)[nH]c(=O)c2c1nc(N1CCCCC1)n2C/C=N/Nc1ccc(C(=O)O)cc1 | 7.95%
73 | CC(C)c1ccc(N2C(=O)C3C4C=CC(CC4)C3C2=O)cc1 (stereo not drawn) | 20.2%
74 | N/C(Cc1ccc(Cl)cc1Cl)=N\OC(=O)c1ccccc1F | -27.4%
75 | Cc1ccc(Cn2c(C(C)Nc3nc(-c4ccc(F)cc4)cs3)nc3cc(C(=O)NCCCO)ccc32)cc1 (stereo not drawn) | -2.66%
76 | CN(C)c1ccc(C=NCCC2(O)CCOC(C)(C)C2)cc1 (stereo not drawn) | 9.28%
77 | CCc1ccc(CNC(=O)C2CCCN(c3nc4ccccc4o3)C2)cc1 (stereo not drawn) | -11%
78 | O=C1C(=O)N(Cc2cccnc2)C(c2cccc([N+](=O)[O-])c2)/C1=C(/O)c1ccc2c(c1)OCO2 (stereo not drawn) | 13%
79 | CCOCCCNC(=O)c1ccc(CS(=O)(=O)Cc2cccc(C)c2)o1 | 9.45%
80 | O=C(N/C(=C/c1ccccc1)C(=O)N1CCCCC1)c1ccccc1 | 29.9%
81 | COc1ccc(N2CCN(c3cc(C)c4cccc(C)c4n3)CC2)cc1 | 22.7%
82 | COC(=O)C(CC(C)C)NC(=O)c1ccc([N+](=O)[O-])cc1 (stereo not drawn) | -23.2%
83 | COc1cc(C(=O)N2CCN(S(=O)(=O)c3ccc(C)cc3)CC2)ccc1OCc1c(C)noc1C | -21%
84 | Cc1cc(C(=O)NC2CCCCC2)c(C)n1-c1ccc(F)cc1 | -6.06%
85 | C/C(=N\NC(=O)c1cc(C)nc2ccccc12)c1ccc([N+](=O)[O-])cc1 | -11.7%
86 | COc1cc(C2NC(=O)NC(C)=C2C(C)=O)cc(OC)c1OC (stereo not drawn) | 9.41%
87 | CCOC(=O)c1cccc(Nc2nc(-c3cccnc3)nc3ccccc23)c1.Cl | -6.06%
